Variants at the floor of the assay are shown more often than the library holds them.
B1: glmS ribozyme (parent)
chain: AUAAAAGCGCCAGAACUACAGAAAUGUAGUUGACGAGGAGGAGGUUUAUCGAAUUUUCGGCGGAUGCCUCCAAA

Variants of: B1
Experiment: self-cleavage kobs at 2500 uM GlcN6P; higher = faster cleavage; RNA array
Settings: with glucosamine-6-phosphate
Summary of the method: (§1)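 Barcoded ribozyme variants, transcribed in situ by E. coli RNA polymerase on sequenced MiSeq chips, were followed via a hybridised Cy3 probe at 37 °C. Glucosamine-6-phosphate ranged from 40 μM to 10 mM in HEPES/KCl/Mg(OAc)2 buffer. kobs came from decay fits to per-tile medians, and kcat and KM from weighted Michaelis–Menten fits.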

| Variant | self-cleavage kobs at 2500 uM GlcN6P |
| --- | --- |
| A6U G40C C70G | < 1e-05 s⁻¹ |
| A6U U55C C61A | < 1e-05 s⁻¹ |
| G7A A12G G62A G63U | < 1e-05 s⁻¹ |
| G7A A14G C16A | < 1e-05 s⁻¹ |
| G7A A15C A48C G62C | < 1e-05 s⁻¹ |
| G7A C34U G40U C67U | < 1e-05 s⁻¹ |
| G7A G9U A33C U47G | < 1e-05 s⁻¹ |
| G7A G29U U65C | < 1e-05 s⁻¹ |
| G7A G32U A52C C61G C67U | < 1e-05 s⁻¹ |
| G7A G44U G51A | < 1e-05 s⁻¹ |
| G7A G51A C71G | < 1e-05 s⁻¹ |
| G7A G63A | < 1e-05 s⁻¹ |
| G7C A15G G38A A39G C50A | < 1e-05 s⁻¹ |
| G7C A33U G51U G66U | < 1e-05 s⁻¹ |
| G7C A42G C50A U54G | < 1e-05 s⁻¹ |
| G7C A53G C70A | < 1e-05 s⁻¹ |
| G7C C8G A48G U54C C67A | < 1e-05 s⁻¹ |
| G7C C10U A33U U46C | < 1e-05 s⁻¹ |
| G7C C16A C70U | < 1e-05 s⁻¹ |
| G7C G9C C61G G62U | < 1e-05 s⁻¹ |
| G7C U30C A39C | < 1e-05 s⁻¹ |
| G7C U31A G63U C70G | < 1e-05 s⁻¹ |

| Variant | self-cleavage kobs at 2500 uM GlcN6P |
| --- | --- |
| G7U A12C A36U A39C G51A | < 1e-05 s⁻¹ |
| G7U A36C U57G G62C | < 1e-05 s⁻¹ |
| G7U A36U U47G C61U U69G | < 1e-05 s⁻¹ |
| G7U A52U U55C | < 1e-05 s⁻¹ |
| G7U C10G U31A U49C | < 1e-05 s⁻¹ |
| G7U C34A A36U A53G U54C | < 1e-05 s⁻¹ |
| G7U G38C G43C A64U U69G | < 1e-05 s⁻¹ |
| G7U G41A A64U | < 1e-05 s⁻¹ |
| G7U G51C A53C | < 1e-05 s⁻¹ |
| G7U U30C G40C A53G U56A | < 1e-05 s⁻¹ |
| G7U U47G A52U | < 1e-05 s⁻¹ |
| C8A A14U A42U | < 1e-05 s⁻¹ |
| C8A C10U C11A U45C U65G | < 1e-05 s⁻¹ |
| C8A C11A U57C | < 1e-05 s⁻¹ |
| C8A C16U A33U C68U | < 1e-05 s⁻¹ |
| C8A C58A A64C | < 1e-05 s⁻¹ |
| C8A G13U U30C | < 1e-05 s⁻¹ |
| C8A G29A G38U | < 1e-05 s⁻¹ |
| C8A G59A C70U | < 1e-05 s⁻¹ |
| C8G A12G U31C G62A | < 1e-05 s⁻¹ |
| C8G A14U G26U C58U | < 1e-05 s⁻¹ |
| C8G A14U U31A G41A U49G | < 1e-05 s⁻¹ |

Variants of: B1
Experiment: self-cleavage kobs at 10000 uM GlcN6P; higher = faster cleavage; RNA array
Settings: with glucosamine-6-phosphate
Summary of the method: as §1

| Variant | self-cleavage kobs at 10000 uM GlcN6P |
| --- | --- |
| G7A G63A | < 1e-05 s⁻¹ |
| G7U A52U U55C | < 1e-05 s⁻¹ |

— the supplement of paper PMC7125110
